Laboratory results as given in PubChem BioAssay AID463173 (ICCB-Longwood Screening Facility, Harvard Medical School, 2010).
Among all 52,000 compounds or so, about 4,300 (8.3%) were called active. Cut-off read from the data, not from the text of the source: active = survival mostly below about 52% (no sharp cut-off); inactive = mostly above about 56%. This is one part of the list.

tested on: DeltatarO mutant; assay: S. aureus survival, RN4220 and DeltatarO strains – OD600, teichoic acid synthesis inhibitors, primary screen (AID 463173); details: S. aureus RN4220 wild type/DeltatarO growth, OD600, 18 h, active compounds read low, screened at 18.75 µg/mL (by protocol)

| Structure (SMILES) | survival |
| --- | --- |
| Cc1cc(N2CCCCC2)nc2ccc(NC(=O)CCC(=O)N3CCN(c4cccc(Cl)c4)CC3)cc12 | inactive: 55% |
| CCN(C(=O)Cn1c(SCc2ccccc2F)nc2cccnc21)c1ccccc1 | inactive: 99% |
| N/C(=N\c1nc2c(c(=O)[nH]1)CCC2)Nc1cccc(Cl)c1 | inactive: 91% |
| O=C(C1COc2ccccc2O1)N(Cc1cccnc1)c1nc2ccc(F)cc2s1 (stereo not drawn) | inactive: 96% |
| O=C(OCc1ccccc1)c1ccc(-c2nnn(Cc3ccccc3F)n2)cc1 | inactive: 98% |
| O=C(CSCc1nc2cccnc2n1C1CCCCC1)NCc1cccc(Br)c1 | inactive: 105% |
| CCOc1ccc(CCNC(=O)c2ccc3[nH]c(C)c(C)c3c2)cc1 | inactive: 100% |
| Cc1ccc2scc(N3CCN(c4ccccc4)CC3)c(=O)c2c1 | inactive: 80% |
| O=C(c1ccc2c(c1)N(Cc1ccccc1F)C(=O)c1ccccc1S2(=O)=O)N1CCCCCC1 | inactive: 73% |
| CCCNC(=O)c1cc2n(n1)CCCN(Cc1ccc(F)cc1)C2=O | inactive: 94% |
| COc1cccc(C(=O)c2sc(Nc3ccc(C)cc3C)c(S(=O)(=O)c3ccccc3)c2N)c1 | inactive: 65% |
| COc1ccc(-c2csc3ncnc(Nc4ccc(OC)c(OC)c4)c23)cc1 | inactive: 98% |
| Cc1cc(OCCn2cc(C(=O)c3cccs3)c3ccccc32)ccc1Cl | inactive: 124% |
| Cc1c(C(=O)OCCOc2ccccc2)[nH]c2c1C(=O)CC(c1ccccc1)C2 (stereo not drawn) | inactive: 74% |
| O=C(Nc1ccc2nc(SCC(=O)N3CCOCC3)sc2c1)c1cccc(Cl)c1 | active: 32% |
| COc1cccc(CNC(=O)C(=O)NCC(c2ccco2)S(=O)(=O)c2cccs2)c1 (stereo not drawn) | inactive: 94% |
| CCOc1ccccc1CNC(=O)C1CCN(C(=O)N2CC(CC)Oc3ccc(C)cc32)CC1 (stereo not drawn) | inactive: 71% |
| CC(=O)N1CCc2cc(CNC(=O)Cc3ccc(F)cc3)ccc21 | inactive: 94% |
| O=C(/C=C/c1ccccc1)N1CCN(Cc2cc(=O)n3nc(-c4ccccc4F)sc3n2)CC1 | inactive: 73% |
| CC(C)(C)C(=O)Cn1c(=O)n(-c2ccc(Cl)cc2)c(=O)c2c3c(sc21)CCCC3 | inactive: 103% |
| COc1ccc(N2CC(NC(=O)/C=C\c3ccccc3)CC2=O)cc1 (stereo not drawn) | inactive: 92% |
| O=C(Cn1c(SCCOc2ccccc2)nc2ccccc21)N1CCOCC1 | inactive: 47% |

| Structure (SMILES) | survival |
| --- | --- |
| COc1ccc(CCNC(=O)CCn2c(=O)c3ccccc3n(Cc3cc(C)ccc3C)c2=O)cc1OC | inactive: 84% |
| COc1ccc(NC(=O)Cn2c(=O)n(CCC(=O)NCc3ccccc3OC)c(=O)c3ccccc32)cc1Cl | inactive: 87% |
| Cc1ccc(Cn2ccn(Cc3ccccc3F)c(=O)c2=O)cc1 | inactive: 105% |
| COc1ccc(Cl)cc1N(C)C(=O)c1ccc2c(=O)n3c(nc2c1)CCCCC3 | inactive: 76% |
| Cc1c(Cl)cccc1NC(=O)COCc1cc(-c2ccc3c(c2)OCO3)on1 | inactive: 102% |
| COc1cccc(CNC(=O)CCc2c(C)nc3c(c(C)nn3-c3ccc(C)c(C)c3)c2C)c1 | inactive: 67% |
| Cc1nc2c(-c3ccccc3)c(C)nn2c(C)c1CCC(=O)N1CCN(c2ccc(F)cc2)CC1 | inactive: 96% |
| Cc1cccc(N2CCN(CCCNc3ncnc4onc(-c5ccc(Cl)cc5)c34)CC2C)c1 (stereo not drawn) | inactive: 93% |
| CSc1ccc(CCNC(=O)c2ccc(-c3nc(COc4ccccc4)c(C)o3)cc2)cc1 | inactive: 91% |
| CCCc1cc(=O)[nH]c2nnc(SC(C)CC)n12 (stereo not drawn) | inactive: 85% |
| CCOC(=O)c1sc(NC(=O)/C=C/c2ccc(C(C)C)cc2)c(C(=O)OCC)c1C | inactive: 52% |
| CCc1cccc(C)c1NS(=O)(=O)c1cc2[nH]c(=O)c(=O)[nH]c2cc1C | inactive: 80% |
| Cc1ccc2nc(N3CCN(c4cccc(C(F)(F)F)c4)CC3)c3nnnn3c2c1 | inactive: 94% |
| O=c1cc(C(F)(F)F)nc2cc(-c3ccccc3)[nH]n12 | inactive: 102% |
| CCN(CC)c1ccc(NC(=O)CCS(=O)(=O)c2cc3c(cc2Cl)NC(=O)CO3)c(C)c1 | inactive: 86% |
| CCN1CCOC(=O)C1CC(=O)Nc1cc(C)ccc1OC (stereo not drawn) | inactive: 146% |
| Cc1cccc(NC(=O)c2ccc3snnc3c2)c1 | inactive: 108% |
| Cc1ccc2nc(-c3ccc(Cl)c(NC(=O)COc4cccc(C)c4C)c3)oc2c1 | active: 48% |
| Cc1ccc2[nH]c(=O)c(CNCCCN(C)C)cc2c1 | inactive: 83% |
| Cc1ccc(NC(=O)C2CCCN(c3nnc(-n4c(C)ccc4C)s3)C2)c(C)c1 (stereo not drawn) | inactive: 100% |
| N#Cc1ccccc1Cn1c(=O)n(CCCC(=O)NCc2ccc3c(c2)OCO3)c(=O)c2sccc21 | inactive: 146% |
| Cc1ccn2c(=O)cc(COc3ccc(NC(=O)COc4ccc(Cl)cc4)cc3)nc2c1 | inactive: 95% |

| Structure (SMILES) | survival |
| --- | --- |
| CCCN(CCC)C(=O)Cn1c(=O)n(-c2cccc(OC)c2)c(=O)c2c3c(sc21)CCCC3 | inactive: 93% |
| CCCC(C(=O)NCc1cccc(Cl)c1)N1Cc2ccccc2C1=O (stereo not drawn) | inactive: 102% |
| O=C(CCCCn1c(=O)c2ccccc2n(Cc2ccccc2Cl)c1=O)NCCc1ccccc1 | inactive: 117% |
| Cc1onc2c1C(=O)CC(C)(C)C2 | inactive: 73% |
| CCc1nnc(SCC(=O)Nc2ccccc2Cl)nc1CC | inactive: 80% |
| CC(C)COc1ccc(C(=O)NCC2(N3CCN(C)CC3)CCCCC2)cc1 | inactive: 80% |
| CCc1ccc2ncc3c(-c4ccccc4)nn(-c4ccccc4)c3c2c1 | active: 5% |
| COCCNC(=O)Cn1nc(C)c2c(C)n(-c3ccc(C)cc3)nc2c1=O | inactive: 135% |
| CCc1ccc(NCc2cc3cc4c(cc3n(CC(=O)Nc3cccc(OC)c3)c2=O)OCO4)cc1 | inactive: 93% |
| Cc1cc(C)n2nc(C(=O)N/N=C/c3ccncc3)nc2n1 | inactive: 76% |
| Cc1cc(NS(=O)(=O)c2ccc(NC(=O)c3ccccc3C)cc2)nc(C)n1 | inactive: 93% |
| COc1cccc(NC(=O)CSc2nnc3scc(-c4ccc(Cl)cc4)n23)c1 | inactive: 52% |
| Cc1ccc(C)c(NC(=O)CC2NCCNC2=O)c1 (stereo not drawn) | inactive: 79% |
| CC1=C(C#N)C(NC(=O)c2ccccc2Cl)(C(F)(F)F)C(=O)N1 (stereo not drawn) | inactive: 132% |
| CCc1ccc(NC(=O)c2sc3nc(C)c(Cl)c(C)c3c2NC(=O)c2ccccc2OC)cc1 | inactive: 130% |
| CCCCSc1nnc(-c2ccc3[nH]c(C)c(C)c3c2)o1 | inactive: 75% |
| COc1ccc(OC)c(NC(=O)C2=C(C)C(=O)OC23CCCCCC3)c1 | inactive: 131% |
| Cc1ccc(S(=O)(=O)c2nnn3c2nc(N2CCN(c4ccccc4F)CC2)c2cc(Cl)ccc23)cc1C | inactive: 82% |
| COc1ccc(/C=C/C(=O)Nc2ccc3nc4c(c(Nc5ccccc5OC)c3c2)CCCC4)cc1 | inactive: 65% |
| O=C(c1ccc2c(c1)N(Cc1cccc(F)c1)C(=O)c1ccccc1S2)N1CCOCC1 | inactive: 86% |
| CC(=O)N1c2c(cc(Br)cc2S(=O)(=O)N2CCN(c3cc(C)ccc3C)CC2)CC1C (stereo not drawn) | inactive: 78% |
| Cc1ccccc1CN1C(=O)c2ccccc2S(=O)c2ccc(C(=O)NC3CCC(C)CC3)cc21 (stereo not drawn) | inactive: 101% |

| Structure (SMILES) | survival |
| --- | --- |
| Cc1ccc(S(=O)(=O)c2nnn3c2nc(N2CCCC2)c2sccc23)cc1C | inactive: 48% |
| COc1ccc(CNc2nc3c(-c4cccc(C)c4)nnn3c3ccccc23)cc1 | inactive: 85% |
| CCOc1ccc(NC(=O)c2cnc(N3CCCC3)nc2C)cc1 | inactive: 98% |
| Cc1nn(CC(=O)N2CCC(C)CC2)c(=O)c2cc3sccc3n12 | inactive: 90% |
| CCOc1ccc(CCNC(=O)c2cn(C)c3ccc(S(=O)(=O)N4CCCCCC4)cc3c2=O)cc1OCC | inactive: 61% |
| CC(C)c1ccc(NC(=O)Cn2cc(S(=O)(=O)N3CCN(c4ccccc4F)CC3)c3ccccc3c2=O)cc1 | inactive: 92% |
| CCOC(=O)c1c(C)[nH]c(C)c1S(=O)(=O)N(C)CC(=O)N1CCN(c2ccccc2)CC1 | inactive: 65% |
| COc1ccccc1NC(=O)c1c(NCc2ccc(OC)c(OC)c2OC)sc2c1CCC2 | inactive: 82% |
| Cc1ccc(CN(C(=O)COc2ccc([N+](=O)[O-])cc2)c2ccccn2)cc1 | inactive: 49% |
| CCN(CC)CCCNC(=O)c1cn(C)c2ccc(S(=O)(=O)N(C)C3CCCCC3)cc2c1=O | inactive: 129% |
| CCN(CC)CCCNC(=O)c1cnc(SC)nc1-c1ccccc1 | inactive: 69% |
| CN1CCN(C(=O)c2ccc(-c3ccccc3)cc2)CC1 | inactive: 83% |
| Cc1ccc2c(=O)cc(C(=O)Nc3nc4ccc(Cl)cc4s3)oc2c1C | active: 39% |
| CCOCCc1nn2c(=O)cc(COC(=O)CNC(=O)c3cccc(C)c3)nc2s1 | inactive: 70% |
| O=C(COc1ccc(Cl)cc1)Nc1nnc(S(=O)(=O)N2CCc3ccccc32)s1 | active: 6% |
| COc1cccc(-c2ncnn2-c2sc3c(c2C#N)CCCCC3)c1OC | inactive: 86% |
| CCN(C(=O)CSc1nc2ncccc2[nH]1)c1ccc(C(C)C)cc1 | active: 43% |
| CC(C)(C)OC(=O)N1CCC(c2c(C(=O)NCCN3CCc4ccccc4C3)cnn2-c2ccc(F)cc2F)CC1 | inactive: 70% |
| Cc1ccc(CN2CCC(CNC(=O)Nc3ccc(Cl)cc3)C2)cc1 (stereo not drawn) | inactive: 60% |
| CCC(=O)N1CCc2cc(Br)cc(S(=O)(=O)CCC(=O)NCCc3cccc(C)c3)c21 | inactive: 63% |
| Cc1ccc(NC(=O)CCn2c(=O)c3cccn3c3ccccc32)cc1C | active: 46% |
| Cc1ccc(-n2c(=O)c3cccnc3n2CC(=O)Nc2ccc(Br)cc2)cc1C | inactive: 40% |
